Laboratory results as given in article PMC6919601, “Identification of Plasmodium dipeptidyl aminopeptidase allosteric inhibitors by high throughput screening” (PLoS ONE, 2019).
Among all 110,000 compounds or so, about 230 (0.21%) showed an effect of 50% or more. The list shows a part of the results.

Target: DPAP1 (Plasmodium falciparum, UniProt Q8IIJ9)
Experiment: primary screen, percent inhibition; read by cleavage of a fluorogenic dipeptide substrate; higher = more effect of the substance
Set-up: species or system P. falciparum D10 trophozoite lysates; single well
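Also: 30 min substrate incubation versus DMSO and 10 µM JCP410 controls.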

DPAP1, sequence (Q8IIJ9 whole entry, looked up): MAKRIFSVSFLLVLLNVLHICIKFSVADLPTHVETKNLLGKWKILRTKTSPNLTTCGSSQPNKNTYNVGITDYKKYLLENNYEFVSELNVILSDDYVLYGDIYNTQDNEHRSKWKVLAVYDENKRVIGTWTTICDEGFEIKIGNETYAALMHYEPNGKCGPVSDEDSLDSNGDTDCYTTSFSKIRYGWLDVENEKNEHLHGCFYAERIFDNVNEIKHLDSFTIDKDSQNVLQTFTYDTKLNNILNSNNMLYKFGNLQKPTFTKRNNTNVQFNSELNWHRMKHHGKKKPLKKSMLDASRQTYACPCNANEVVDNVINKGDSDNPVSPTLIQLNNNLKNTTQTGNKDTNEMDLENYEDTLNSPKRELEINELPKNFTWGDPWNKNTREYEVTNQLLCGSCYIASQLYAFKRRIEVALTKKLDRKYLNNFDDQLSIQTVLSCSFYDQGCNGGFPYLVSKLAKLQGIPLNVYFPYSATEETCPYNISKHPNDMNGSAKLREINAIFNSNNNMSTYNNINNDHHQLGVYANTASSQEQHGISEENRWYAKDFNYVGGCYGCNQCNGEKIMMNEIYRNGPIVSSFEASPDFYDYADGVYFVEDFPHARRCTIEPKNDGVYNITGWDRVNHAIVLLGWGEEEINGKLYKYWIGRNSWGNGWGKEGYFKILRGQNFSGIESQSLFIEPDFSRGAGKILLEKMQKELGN

Compound | % Inhibition @ 10 uM
CCOc1ccc(C(=O)C2=C(O)C(=O)N(CCN(C)C)C2c2ccc(OC)cc2)c(C)c1 (stereo not drawn) | -1.93%
CC(C)(C)Nc1nc(Cl)nc(Nc2ccccc2)n1 | -0.215%
CC(C)N(Cc1nc(-c2ccccc2)no1)C(=O)C1CCCCC1 | -4.94%
Cc1ccc(Cn2ccc(NC(=O)c3ccc(F)c(F)c3)n2)cc1 | -12.1%
COc1cccc(C2=N/C(=C\c3cccc(Cl)c3Cl)C(=O)O2)c1 | 6.2%
COc1ccccc1-c1cc(C(=O)Nc2cccnc2Cl)no1 | 2.01%
COc1ccc(CNC2=NC(=O)CC(C(=O)Nc3ccc(Cl)cc3)S2)cc1 (stereo not drawn) | 0.161%
O=c1c2cc(-c3ccccc3)sc2nnn1CCOc1ccccc1 | 5.54%
COc1ccc(N2CCN(S(=O)(=O)c3ccc(OC)c(Cl)c3Cl)CC2)cc1 | 2.42%
CCOc1cc2c(cc1OCC)C(c1ccc(O)cc1)NCC2 (stereo not drawn) | 2.02%
O=C(CNC(=S)N(CCCN1CCOCC1)Cc1cccs1)NCc1ccc(F)cc1 | -7.43%
CCOC(=O)N1CCN(c2c(NCCc3cccc(C)c3)c(=O)c2=O)CC1 | -1.44%
CC[C@H](C)[C@H](NC(=O)c1cccc(F)c1)C(=O)N[C@@H](CCc1ccccc1)C(=O)COCc1ccccc1 | -2.35%
COc1ccc(CCNC(=O)c2ccc(C(C)C)cc2)cc1 | 4.81%
Nc1nc(C(=O)O)nn1C12CC3CC(CC(C3)C1)C2 | -0.185%
CC(=O)N1CC2(c3ccccc3)CN(C(C)=O)CC(c3ccccc3)(C1)C2=O | 11.5%
Cc1ccc(OCC(=O)Nc2ccc(F)cc2F)cc1 | 1.04%
NC(=O)c1c(NC(=O)Cn2nc(C(F)(F)F)cc2C2CC2)sc2c1CCCC2 | 2.4%
Cc1ccc(C)c(CN2CCC(O)(c3ccc(Cl)cc3)CC2)c1 | 4.68%
CC(NC(=O)C1CCN(c2nc3cc(Cl)ccc3s2)CC1)c1ccccc1 (stereo not drawn) | 2.79%
COc1ccc2[nH]c3c(=O)n(N)c(=S)[nH]c3c2c1 | -3.85%
CC1=C(C(=O)Nc2cccc(C)c2C)C(c2ccc(Br)cc2)NC(=O)N1 (stereo not drawn) | -2.6%
COC(=O)c1c(NC(=O)c2nc(S(=O)(=O)Cc3ccccc3)ncc2Cl)sc2c1CCC2 | -2.71%
CC(C)CC(C(=O)NCC#N)c1cccc(-c2ccc(-c3ccno3)cc2)c1 (stereo not drawn) | 1.7%
COc1ccc(C2=NN(C(=O)CSc3nncn3C)C(c3cccc(OC)c3OC)C2)cc1 (stereo not drawn) | 0.279%
O=C(NCc1ccccc1)N1CCN2CCCCC2C1 (stereo not drawn) | -6.13%
O=C(c1ccc(C(=O)N2CCCCCC2)cc1)N1CCCCCC1 | 3.32%
